Test results taken from the supplement of paper PMC10126150.
Sequences with one replicate were seen in a single cluster, so their values are uncertain.

Tested on: ATP
Experiment: switch fluorescence ratio, 500 uM ATP over buffer (Cy3 cluster intensity, sum of 5 cycles each) (fold (ratio)); higher = stronger signal-on switching upon ATP binding; sequences stand for … in TCGTCGGCAGCGTCAGATGTGTATAAGAGACAGTTTTTTTTTTTTTTTTTTTTTTTTT…TC
Settings: aptamer strand: ATP DNA aptamer (quencher-CACCTGGGGGAGTATTGCGGAGGAAGG + anchor), 100 nM annealed; ATP concentration: 500 uM; one replicate
Summary of the method: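 Per cluster, summed Cy3 intensity from the target cycles was divided by that from the buffer cycles to give the fluorescence ratio, then averaged per switch-domain sequence. Clusters outside 100-1000 RFU were excluded. The Cy3-labelled switching-strand clusters, on a modified Illumina MiSeq flow-cell, were annealed to 100 nM quencher-labelled ATP aptamer and imaged in selection buffer, then after 15 min with 500 uM ATP at 22 °C, for five cycles with NaOH stripping and re-annealing between them.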
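Further: ATP exposure 15 min at 22 °C before imaging.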

Sequence | switch fluorescence ratio
GGACGGCATT | 1.13
ACACTAGAAA | 1.06
AATAAGGTGG | 1.05
GGTAACTTGT | 1.05
TTGTTTAAGG | 0.956
TTACCAGGGT | 1.07
ATCGGTTTTT | 0.997
TTCATTAAGC | 1.04
CGAAGGTCTT | 1.02
CAGCAAAGGT | 1.09
GGACCACTAC | 1.38
ACAGGTTTGG | 1.01
TGTGCCGACG | 1.07
TCATTTTAGC | 1.01
TACTGCCTCA | 1.04
GTAACATTGA | 0.964
CCAATCATGG | 1.03
AGAAATAAGT | 1.01
ATGTTGCTCG | 0.995
AGTTCGGACG | 1.02
GGGTTACTGC | 1
ATGATTTTCT | 0.989
TCGTTATCGA | 1

Sequence | switch fluorescence ratio
GGGATTCAGC | 1.01
GATCTAGTAT | 1
TATGCTTTTC | 0.985
GTGTCTTGGT | 0.968
GGAACTTCTT | 1.04
TCCATAGAAT | 1
TATGCCCAGG | 3.55
CTATCTGGGG | 0.947
AGACGACAGT | 0.993
CTTAGTCCAA | 1.06
ACAATCGCCG | 1.03
GAACACATTC | 1.04
TCATTTAAGT | 1
TATACGGCCC | 0.973
TTAAAAGCAA | 2.29
CCTTGTGATA | 1.17
GAGAATGGTC | 1.01
GTTTTTGTG | 1.06
CGTTAGGTCA | 1.03
AATAGCGAAC | 1.19
CATTAAACGG | 1.01
AATGTTCGGG | 1.02
CACATAGCAA | 2.06

Sequence | switch fluorescence ratio
TGAGGTTCCT | 1.05
CGCTGGGGTG | 0.979
TGTTTCGT | 1.03
CCAAGTCCT | 1
AGCACTTTCT | 1.04
GGGAGGAACG | 0.948
TCGAGTTGAC | 1
AGGGTGTCAT | 1
TCGTAAACCT | 2.63
TCACGTATTT | 1.24
AATGCGTTCT | 1.03
AAGCTGATCC | 1.07
AATACTCGCT | 1.18
GCGTGCAATC | 1.31
CAATGAGATA | 1.01
CTGGCCAGGG | 0.991
CGTAATAGG | 1.18
CAAAGATCGC | 1
GATGCTTACA | 0.961
GGGTTGGTAT | 0.965
AAACCCTTGG | 1.05
GCTGGTCCG | 0.938
GTAGTATTTG | 0.989

Sequence | switch fluorescence ratio
CGATCTTGT | 1
TCTTATGACT | 1
AGATCCGGTC | 0.975
CCGTAAATGA | 2.21
AACCGGTATG | 0.978
CCATGACTGT | 0.959
AGTCTCTACA | 1.01
GTCGCGCCAC | 1.03
AACTTCTGTG | 0.977
GGTTACAGCC | 1.02
CCACTACGGC | 1.11
ACAACGCTGT | 1.22
GGGCACCCAG | 1.03
AAAATGCTT | 1.01
ATGCAAGAGT | 1.05
ATTGTTTGTG | 0.972
CGCTAGCAAA | 1.29
ATTTGTTAG | 1
TTCATGTAAT | 1.05
CGACTAGCGC | 1.06
AGGTAGAGGC | 1.02
TCGAGAATCA | 0.982
TTCACGAGGG | 0.965

Sequence | switch fluorescence ratio
ACTTTACCCT | 1.38
AACCAAAGTG | 0.951
TGCGGTTCCA | 1
TTTTGCAGTT | 0.993
AAGTCTATAC | 1.59
CGATAGCCAG | 1.02
GGGCCGCAGG | 0.984
CCATCATACT | 1.65
CAAGTCTTAA | 1.05
TTTCGCCTC | 1.24
CTTTAGATCG | 1.01
GAACAAGCCT | 1.18
ATGTACCGGG | 1.09
TGACTTAG | 1.05
AGAAAATCAT | 1
TAAGGATTTC | 0.951
AGACTCACAT | 1.11
CGCAATGAAA | 1.36
GCGTTTGATG | 1.01
GGGACAGTAA | 1.02
ATTTAACGCT | 0.968
TCCTAACCCT | 1.08
CTGAAATGGA | 1

Sequence | switch fluorescence ratio
TGTGTAATAC | 3.86
TACTTGGGA | 0.993
CACGTAATGT | 1.34
CAGAGCGAGT | 0.998
CAGCGCTGTT | 1.04
ATGAACCAGT | 1.03
CGTCTTTGTG | 0.969
CCGTTTGGAA | 1.03
ACCGAGTGAG | 1.01
TATAAAAACA | 1.03
TAGTCCGATC | 1.06
CCGTAGGGCG | 0.99
GGTGGGCGAA | 0.947
GTAATCAGCG | 0.967
CCTTGTGATT | 0.993
GCTCTGGCCA | 0.99
AAGAGCAACC | 1.15
CAAGTTTGAC | 1.02
TTCACAGTGT | 1.04
GTAGACTAGG | 0.986
TAACAGACA | 1.09
ACATTAGAAC | 1.02
AATGTGTGTT | 1.02

Sequence | switch fluorescence ratio
GACGGTGGCG | 0.919
ACTCCCCAAA | 2.9
AGGTGCCATA | 0.986
ATGGCATTGT | 0.991
ACGAGAGGAA | 1.02
ACTTTTATG | 0.973
GATAGACTCC | 1.05
TGAAATTAGG | 0.971
TATGGACGGG | 1.01
CTTTAAATCG | 0.988
AAGTGGTTC | 0.954
AAATTGCATC | 0.983
GTTCAGGAGA | 1.01
ATAAAAACAC | 1.01
TTCGCCCCTG | 0.999
TATTACGGCC | 1.04
AGAATTGCCC | 1.05
CGTCAAAGCC | 1.05
ATCCAGACGA | 1.06
